Data published in paper PMC4336329 (PLoS ONE, 2015).
The whole screen tested about 310,000 compounds, of which about 14,000 (4.5%) showed an effect of 50% or more. The effect is printed as a negative number. The list shows a part of the results.

target: human ether-à-go-go-related gene (hERG) potassium channel (human, UniProt Q12809); experiment: primary screen, population patch clamp on CHO cells stably expressing hERG
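Further: peak tail current of the secondary pulse compared with the same well before compound.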

Chain of human ether-à-go-go-related gene (hERG) potassium channel (Q12809 whole entry, looked up): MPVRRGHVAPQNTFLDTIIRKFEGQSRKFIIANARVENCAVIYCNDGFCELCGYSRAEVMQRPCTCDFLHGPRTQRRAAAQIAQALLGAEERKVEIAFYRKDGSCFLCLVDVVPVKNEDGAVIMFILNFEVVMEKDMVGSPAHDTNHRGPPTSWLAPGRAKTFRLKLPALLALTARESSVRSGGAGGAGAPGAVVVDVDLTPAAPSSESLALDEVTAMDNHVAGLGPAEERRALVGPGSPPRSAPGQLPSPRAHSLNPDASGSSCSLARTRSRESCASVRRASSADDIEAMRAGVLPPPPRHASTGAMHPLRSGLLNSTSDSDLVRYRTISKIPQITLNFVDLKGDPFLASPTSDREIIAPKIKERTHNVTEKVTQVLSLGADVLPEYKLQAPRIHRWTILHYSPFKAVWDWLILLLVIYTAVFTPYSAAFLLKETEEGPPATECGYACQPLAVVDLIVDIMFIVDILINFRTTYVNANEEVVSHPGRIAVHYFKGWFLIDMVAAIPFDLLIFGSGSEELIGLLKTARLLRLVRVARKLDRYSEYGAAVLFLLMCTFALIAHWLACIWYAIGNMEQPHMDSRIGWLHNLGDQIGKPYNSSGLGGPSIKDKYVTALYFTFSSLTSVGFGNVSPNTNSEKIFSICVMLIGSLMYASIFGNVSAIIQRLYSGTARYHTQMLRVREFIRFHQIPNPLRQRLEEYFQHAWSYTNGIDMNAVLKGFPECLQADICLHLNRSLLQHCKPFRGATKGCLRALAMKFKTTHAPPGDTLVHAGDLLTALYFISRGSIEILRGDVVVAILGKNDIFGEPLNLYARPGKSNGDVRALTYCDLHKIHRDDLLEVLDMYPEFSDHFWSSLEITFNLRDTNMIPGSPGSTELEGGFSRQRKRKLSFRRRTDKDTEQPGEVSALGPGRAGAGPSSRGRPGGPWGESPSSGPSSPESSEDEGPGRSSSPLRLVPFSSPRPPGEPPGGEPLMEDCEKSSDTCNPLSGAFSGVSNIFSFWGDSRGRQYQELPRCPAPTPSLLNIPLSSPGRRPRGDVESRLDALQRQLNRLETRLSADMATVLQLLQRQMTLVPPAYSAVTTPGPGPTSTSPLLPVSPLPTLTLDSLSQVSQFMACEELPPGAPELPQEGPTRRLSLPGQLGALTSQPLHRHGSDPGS

Compared with `CCc1nc2nc(C)c(NS(=O)(=O)c3ccc(CC(C)C)cc3)c(=O)n2[nH]1`, `CCn1cnc2c([N+](=O)[O-])c(NS(=O)(=O)c3ccc(C)cc3)ccc21` is lower in “hERG current change (%, negative = inhibition) at 10uM” value: 9.34% for the first, -2.13% for the second.

Going from `CC(=O)N1CCCc2cc(S(=O)(=O)N3CCCC(C(=O)Nc4cc(C)ccc4C)C3)ccc21` (centres unmarked) to `CCC1(c2ccc(C)cc2)NC(=O)N(CC(=O)Nc2cccc(S(=O)(=O)N3CCCC3)c2)C1=O` (centres unmarked), the “hERG current change (%, negative = inhibition) at 10uM” value falls from 17.6% to 0.0785%.

Compared with `CC[n+]1c(/C=C/Nc2ccccc2)oc2ccccc21.[I-]`, `O=C(c1ccccc1)N1CCN=C1c1ccccc1` is higher in “hERG current change (%, negative = inhibition) at 10uM” value: -70.4% for the first, 2.72% for the second.

First: Cc1cccc(CCNc2nc3ccc(C)cc3n3cnnc23)c1
Second: Cc1ccn2c(C(=O)N/N=C\c3ccccc3[N+](=O)[O-])c(C)nc2c1
The “hERG current change (%, negative = inhibition) at 10uM” value of the first is higher: 17.3% for the first, -27.2% for the second.

First: CCCn1c(-c2nonc2N)nc2ccccc21
Second: CCOC(=O)c1cnc(SCC(=O)c2ccc3c(c2)OCCO3)nc1N
The “hERG current change (%, negative = inhibition) at 10uM” value of the first is lower: -12.9% for the first, -2.24% for the second.

First: Cc1c(NS(=O)(=O)c2cc(C(=O)NCC3CCCO3)cc(Cl)c2Cl)c(=O)n(-c2ccccc2)n1C (centres unmarked)
Second: O=C(NCC1CCCO1)c1cccnc1Nc1ccccc1F (centres unmarked)
The “hERG current change (%, negative = inhibition) at 10uM” value of the first is lower: -18.5% for the first, 7.87% for the second.

Compared with `CSc1nc(NS(=O)(=O)c2ccc(F)cc2F)nn1C`, `CCN(CC)S(=O)(=O)c1cc([N+](=O)[O-])ccc1NNC(=O)Nc1ccc(F)cc1` is lower in “hERG current change (%, negative = inhibition) at 10uM” value: 14.9% for the first, 4.25% for the second.

First: O=C(NCCN1CCOCC1)c1c(Cl)cccc1Cl
Second: Cc1cc(OCC(=O)N2CCOCC2)c(C(C)C)cc1Cl
The “hERG current change (%, negative = inhibition) at 10uM” value of the first is higher: 15.7% for the first, -4.17% for the second.

Going from `CO/N=C/c1cc([N+](=O)[O-])ccc1Sc1ccc(C)cc1` to `O=C(N/N=C/c1cc([N+](=O)[O-])ccc1O)c1c[nH]c2ccccc12`, the “hERG current change (%, negative = inhibition) at 10uM” value rises from -4.11% to 12.6%.

Going from `O=C(NCc1ccccc1)c1cc(S(=O)(=O)N2CCCCC2)ccc1N1CCOCC1` to `CCN(CC)S(=O)(=O)c1ccc(N2CCCC2)c(C(=O)OCC(=O)N2CCCC2)c1`, the “hERG current change (%, negative = inhibition) at 10uM” value rises from -20.1% to -3.73%.

First: C[C@H]1CCC/C=C/C2C[C@H](O)CC2[C@H](O)/C=C/C(=O)O1 (some centres unmarked)
Second: COc1cccc2cc(C(=O)NC3CC4CCC3C4)oc12 (centres unmarked)
The “hERG current change (%, negative = inhibition) at 10uM” value of the first is higher: 14.4% for the first, -29.6% for the second.

First: Cc1cc(NC(=O)CSc2nnc(-c3ccncc3)n2Cc2ccccc2)n(-c2ccccc2)n1
Second: Cc1nn(-c2ccccc2)c(N2CCCC2)c1/C=N/NC(=O)c1cc(-c2ccccn2)nc2ccccc12
The “hERG current change (%, negative = inhibition) at 10uM” value of the first is lower: -58.8% for the first, -4.44% for the second.

First: OC(COc1cccc2ccccc12)CN1CCN(c2ccc(Cl)cc2)CC1 (centres unmarked)
Second: CC(C)n1cc(/C=N/NC(=O)COc2cccc3cccnc23)c2ccccc21
The “hERG current change (%, negative = inhibition) at 10uM” value of the first is lower: -3.42% for the first, 8.57% for the second.

First: O=C(Nc1ccc(Cl)cn1)C1CCCN(c2ncnc3c2nc2n3CCCCC2)C1 (centres unmarked)
Second: COc1ccc(Cl)cc1NC(=O)CN1CCCC1.Cl
The “hERG current change (%, negative = inhibition) at 10uM” value of the first is lower: -57.7% for the first, 5.1% for the second.

Compared with `CCOC(=O)Cn1c(=O)oc2cc(S(=O)(=O)N3CCN(C(=O)c4ccco4)CC3)ccc21`, `Cc1ccc(S(=O)(=O)c2ccc(Cl)cc2)cc1S(=O)(=O)N1CCOCC1` is lower in “hERG current change (%, negative = inhibition) at 10uM” value: -12% for the first, -30.8% for the second.

Compared with `COc1ccc(NC(=O)c2cc(OC)c(OC)c(OC)c2)cn1`, `COc1cc(C(=O)NCc2cn3ccsc3n2)cc(OC)c1OC` is higher in “hERG current change (%, negative = inhibition) at 10uM” value: -10.3% for the first, 21.5% for the second.

First: Cc1c(C(=O)O)sc2nc3n(c(=O)c12)CCC3
Second: C=CCn1c(SCc2nc3sc(C(=O)O)c(C)c3c(=O)[nH]2)nnc1-c1ccc(C(C)(C)C)cc1
The “hERG current change (%, negative = inhibition) at 10uM” value of the first is higher: 11.3% for the first, -15.9% for the second.

Compared with `COc1ccc(CN2CCN(Cc3cc(=O)oc4cc(C)ccc34)CC2)c(OC)c1OC`, `COc1cc(C(=O)NCc2ccc(C)cc2)ccc1OCc1c(C)noc1C` is higher in “hERG current change (%, negative = inhibition) at 10uM” value: -80.2% for the first, 0.719% for the second.

Compared with `S=C(Nc1ccccc1)N1CCC(C2CCN(C(=S)Nc3ccccc3)CC2)CC1`, `CCOC(=O)/C(N=Nc1c(C)n(C)n(-c2ccccc2)c1=O)=C(/O)c1ccccc1` is lower in “hERG current change (%, negative = inhibition) at 10uM” value: 4.96% for the first, -7.39% for the second.

Compared with `COc1cccc(/C=C2\CCc3ccccc3C2=O)c1`, `COc1cccc(-c2cc(C(=O)Nc3cccnc3)no2)c1` is lower in “hERG current change (%, negative = inhibition) at 10uM” value: 24.8% for the first, 7.62% for the second.

Compared with `Cc1cc(N2CCOCC2)nc(-c2ccc(Br)cc2)n1`, `CSc1ccccc1NC(=O)COc1nsnc1N1CCOCC1` is higher in “hERG current change (%, negative = inhibition) at 10uM” value: 1.4% for the first, 3.25% for the second.

Going from `COc1cccc2sc(Nc3nc4ccc(NC(C)=O)cc4s3)nc12` to `COc1cccc(-c2nn(C)c3sc(C(=O)NCc4ccc(C)o4)cc23)c1`, the “hERG current change (%, negative = inhibition) at 10uM” value falls from 23.4% to -11.8%.

Going from `CC(=O)c1ccc(OCC(O)Cn2nnc3ccccc32)cc1` (centres unmarked) to `Cc1ccc(SCC(=O)OCC(=O)N(C)CC(=O)Nc2ccccc2Cl)cc1`, the “hERG current change (%, negative = inhibition) at 10uM” value falls from -0.772% to -7.22%.

Going from `O=c1c2cccnc2[nH]c(=S)n1CCC1=CCCCC1` to `Cc1cc(NC(=O)CSc2nc3cc4c(cc3c(=O)n2CCc2ccccc2)OCO4)no1`, the “hERG current change (%, negative = inhibition) at 10uM” value rises from -2.28% to 10.9%.

Going from `CC1=CC(C)(C)N(C(=O)c2ccc(F)cc2)c2cc3c(cc21)OCO3` to `CN(C)C(=O)c1cc(C(=O)c2ccc(C(F)(F)F)cc2)c[nH]1`, the “hERG current change (%, negative = inhibition) at 10uM” value rises from 0.937% to 13.6%.

Going from `CCO/C=C1/C(=O)N(C)C(=O)c2cc(OC)ccc21` to `CCN1C(=O)C(CC(=O)Nc2ccc(OC)cc2)N(CCc2ccc(F)cc2)C1=S` (centres unmarked), the “hERG current change (%, negative = inhibition) at 10uM” value falls from 13.5% to -6.48%.

Going from `O=C(NC1CCCC1)C(c1cc2c(cc1[N+](=O)[O-])OCO2)N1CCCC1` (centres unmarked) to `CCC1C(=O)N=C(SCC(=O)NC2CCCCC2)NC1=O` (centres unmarked), the “hERG current change (%, negative = inhibition) at 10uM” value falls from 20.6% to 19.2%.

Compared with `CCOC(=O)c1sc(NC(=O)CCSC)nc1C`, `COc1cc(CC(=O)Nc2sccc2C(N)=O)cc(OC)c1OC` is higher in “hERG current change (%, negative = inhibition) at 10uM” value: -33.1% for the first, 4.1% for the second.

Compared with `O=C(Nc1cccnc1)C1(F)C(F)(F)C(F)(F)C(F)(F)C(F)(F)C1(F)F`, `O=C(Nc1ccc2oc(-c3cccnc3)nc2c1)c1ccc(Br)o1` is lower in “hERG current change (%, negative = inhibition) at 10uM” value: -1.24% for the first, -6.11% for the second.

First: Cc1[nH][nH]c(=O)c1N=Nc1ccc(Br)c(Cl)c1
Second: Cc1ccc(N=Nc2ccc(N)cc2C)c(S(N)(=O)=O)c1
The “hERG current change (%, negative = inhibition) at 10uM” value of the first is higher: 20.4% for the first, 18% for the second.

Compared with `CN(C(=O)c1ccc(Cl)cc1)C1=CCCCC1CCC#N` (centres unmarked), `COCCNC(=O)CCC1CCN(C/C=C/c2ccccc2OC)CC1` is higher in “hERG current change (%, negative = inhibition) at 10uM” value: -9.12% for the first, -3.87% for the second.

Going from `COc1ccc(NC(=O)C(c2ccccc2)c2ccccc2)c(OC)c1` to `Cc1onc(-c2ccccc2Cl)c1C(=O)Nc1ccccc1O`, the “hERG current change (%, negative = inhibition) at 10uM” value falls from 11.5% to -1.22%.

Compared with `Cc1cc(OC(C)C(=O)NCC(O)c2ccccc2)c2c3c(c(=O)oc2c1)CCCC3` (centres unmarked), `CCN(CC)CCNC(=O)C1(O)c2cc(Br)ccc2NC(=O)N1c1ccccc1` (centres unmarked) is higher in “hERG current change (%, negative = inhibition) at 10uM” value: -32.9% for the first, 18% for the second.

Going from `NS(=O)(=O)c1cc(C(=O)OCC(=O)Nc2ccc(Cl)cc2[N+](=O)[O-])ccc1Cl` to `NC(=O)COC(=O)c1ccc2c(c1)S(=O)(=O)c1ccccc1C2=O`, the “hERG current change (%, negative = inhibition) at 10uM” value rises from -16.7% to -12.5%.

Going from `Cc1ccc2[nH]c(=O)c(CN(c3cccc(C)c3C)S(=O)(=O)c3ccccc3)cc2c1` to `Cc1ccc(S(=O)(=O)Cc2ccc(C(=O)N3CCc4ccccc4C3)o2)cc1`, the “hERG current change (%, negative = inhibition) at 10uM” value falls from -3.33% to -62.2%.

First: O=C(Nc1nnc(-c2ccco2)o1)c1cccc(N2C(=O)CCC2=O)c1
Second: O=C1c2cccc3cccc(c23)C(=O)N1c1ccncc1
The “hERG current change (%, negative = inhibition) at 10uM” value of the first is higher: 7.91% for the first, -2.74% for the second.

Going from `O=C(O)CNC(=O)c1ccc(NC(=O)/C(=C/c2ccccc2)NC(=O)c2ccco2)cc1` to `Cc1ccc(CNC(=O)c2ccc(N3CCC4(CC3)CC(c3ccccc3)=NO4)c(NC(=O)c3c(Cl)cccc3Cl)c2)cc1`, the “hERG current change (%, negative = inhibition) at 10uM” value rises from 8.31% to 27.5%.

Compared with `Cc1ccc(CNC(=O)CCc2nnc3ccc(N4CCC5(CC4)OCCO5)nn23)cc1`, `Cc1ccc(S(=O)(=O)N2CCC(NC(=O)OC(C)C)CC2)cc1` is lower in “hERG current change (%, negative = inhibition) at 10uM” value: 19.4% for the first, -4.43% for the second.

Compared with `CC(C)c1cc(=O)n2[nH]c(SCc3ccccc3Cl)nc2n1`, `O=C1N(CC(=O)N2CCc3ccccc32)CCN1Cc1ccccc1Cl` is lower in “hERG current change (%, negative = inhibition) at 10uM” value: 23.7% for the first, -12.1% for the second.

Compared with `CC1(C)CC(=O)c2cn3nc(C(F)(F)F)nc3nc2C1`, `CCC(CC)c1nc(C#N)c(NCc2ccccc2)o1` is higher in “hERG current change (%, negative = inhibition) at 10uM” value: 4.21% for the first, 9.58% for the second.

Compared with `O=S(=O)(NCc1cc(-c2ccccc2Cl)no1)c1ccccc1`, `CNS(=O)(=O)c1cccc(C(=O)NCC(c2cccs2)N2CCOCC2)c1` (centres unmarked) is higher in “hERG current change (%, negative = inhibition) at 10uM” value: -3.82% for the first, 2.68% for the second.

First: Cl.O=C(NCc1ccccc1)N1CCNCC1
Second: COCCN(C(=S)Nc1ccc(OC)cc1)C1CCN(C(C)C)CC1
The “hERG current change (%, negative = inhibition) at 10uM” value of the first is higher: 12.6% for the first, 0.163% for the second.

First: O=C(COC(=O)C12CC3CC(CC(C3)C1)C2)Nc1ccc([N+](=O)[O-])cc1Br
Second: O=S(=O)(NC1CCCCC1)c1cccs1
The “hERG current change (%, negative = inhibition) at 10uM” value of the first is higher: 8.64% for the first, 5.86% for the second.
